The campaign covered roughly 360,000 compounds. About 2,600 (0.72%) were called active. The inconclusive results got no clear call from the source; some entries with a clear call stand among them for comparison. The call rests on the fitted dose curve; in most records, active means well fitted inhibition curve with a large enough effect; inconclusive means small, poorly fitted or top-dose-only effect; inactive means no such curve, though single readings can be large or run the other way. Potencies beside an inconclusive call are fits to weak or partial responses and may not hold up.
Experiment: Primary qHTS for Inhibitors of ATXN expression; further: nearly all actives have a fitted effect of over 55% in size
Conditions: HEK-293 ATXN2-luciferase reporter, luminescence, 24 h; series mostly up to 57 µM
How it was run: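 ATXN2-luciferase reporter cells (luciferase flanked by upstream and downstream ATXN2 gene portions) were treated 24 h at 37 °C with compounds at up to 57 uM. SteadyGlo luminescence gave expression; GF-AFC fluorescence gave viability.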
Potency means the concentration at half of the fitted maximal effect; tags describe the fitted curve by direction and shape.

Potency, inconclusive:
CC(C)NC(=O)C1CCN(C(=O)c2cc3sccc3n2Cc2ccc(F)cc2)CC1 20 µM [inhibitor, single point]
COc1ccc(C2c3c(ncn(CCCO)c3=N)Oc3ccc4ccccc4c32)cc1 (centres undefined) 39.8 µM [inhibitor, single point]
CC(C)(C)OC(=O)NCc1ccc(CNC(=O)c2[nH]cnc2C(=O)NCC(=O)OCc2ccccc2)cc1 25.1 µM [inhibitor, single point]
COc1cc(-c2oc3ccc(C)cc3c(=O)c2O)cc(OC)c1OC 14.1 µM [inhibitor, partial curve, poor fit]
O=C1c2ccccc2NC(c2ccc(-c3ccccc3F)o2)N1O (centres undefined) 39.8 µM [inhibitor, single point]
CC1(C(=O)NCc2cccc3ccccc23)CCN1CCc1ccccc1 (centres undefined) 25.1 µM [inhibitor, partial curve, poor fit]
Cc1cccc2sc(NNC(=O)c3ccc(S(=O)(=O)N4CCc5ccccc5C4)cc3)nc12 37.7 µM [inhibitor, single point]
O=C(c1ccc(Cl)cc1)N1N=C(c2ccccn2)CC1(O)C(F)(F)F (centres undefined) 28.2 µM [inhibitor, single point]
O=C1c2ccccc2NC(c2ccc(-c3ccc(C(F)(F)F)cc3)o2)N1O (centres undefined) 28.2 µM [inhibitor, partial curve]
COc1ccc2nc(Nc3nc4ccc(NC(C)=O)cc4s3)sc2c1 39.8 µM [inhibitor, single point]
CC(C)N1CCc2c(sc(NC(=O)c3cc4cc([N+](=O)[O-])ccc4s3)c2C(N)=O)C1 26.7 µM [inhibitor, single point]
C=C1C(=O)OC2CC1C(O)CC(C)=CCCC(C)=CC(O)CC2C (centres undefined) 23.8 µM [inhibitor, partial curve, poor fit]
CCCCn1c(N2CCC(Cc3ccccc3)CC2)nc2c1c(=O)[nH]c(=O)n2C 17.8 µM [inhibitor, single point]
CC(=O)Nc1ccc(-c2nnc(SCC(=O)c3ccc4c(c3)Cc3ccccc3-4)n2C)cc1 39.8 µM [inhibitor, single point]
O=C(CCl)NC(Cc1ccccc1)c1ccccc1 (centres undefined) 10.6 µM [inhibitor, single point]
CC(CNC(=S)Nc1cc(F)cc(F)c1)CSc1ccc(Cl)cc1 (centres undefined) 25.1 µM [inhibitor, partial curve, poor fit]
COc1cccc(C(=O)NC2CC3CCCC(C2)N3CC(=O)Nc2ccccc2C(F)(F)F)c1 (centres undefined) 17.8 µM [inhibitor, partial curve, poor fit]
Cc1ccc(-c2noc(CCCC(=O)NC3CCCC3)n2)cc1 12.6 µM [inhibitor, partial curve]
COC(=O)[C@@]12CCCCN1[C@H](c1ccc(-c3ccc(F)cc3)c(OC)c1)[C@@H]1C(=O)N(C)C(=O)[C@@H]12 39.8 µM [inhibitor, single point]
CCOC(=O)N1CCN(C(=O)c2ccc3c(c2)N(Cc2cccc(Cl)c2)C(=O)c2ccccc2S3=O)CC1 (centres undefined) 2.24 µM [inhibitor, full curve, poor fit]
C=CCN(CC=C)C(=S)NC(=O)c1ccc(C)c(Br)c1 12.6 µM [inhibitor, partial curve]
O=C1CN(C(=O)COc2ccc(Cl)cc2)C(c2ccc(F)cc2)c2cc(Cl)ccc2N1 (centres undefined) 28.2 µM [inhibitor, single point]
COc1cccc(/C=N/NC(=O)CNC(=O)C(c2ccccc2)c2ccccc2)c1O 3.55 µM [inhibitor, full curve]
CC(c1ccccc1)N(CC(=O)NC1CCCCC1)S(=O)(=O)c1cccc(C(F)(F)F)c1 (centres undefined) 28.2 µM [inhibitor, single point]
Cc1ccc(-c2ccc(CN3C(C(C)C)C(=O)N(Cc4cn(CCC5OCCO5)nn4)CCS3(=O)=O)cc2)cc1 (centres undefined) 35.5 µM [inhibitor, single point]
Cc1c(Cl)cccc1NS(=O)(=O)c1ccc(NS(=O)(=O)c2ccc3c(c2)OCCO3)cc1 31.6 µM [inhibitor, partial curve, poor fit]
COc1ccccc1N(C)S(=O)(=O)c1ccc(C(=O)Nc2ccc(N3CCOCC3)cc2)cc1 35.5 µM [inhibitor, single point]
COc1ccc(CNC(=O)c2ccc(-c3ccc(F)c(F)c3)c3ccoc23)cc1OC 22.4 µM [inhibitor, partial curve, poor fit]
N=c1c2c(ncn1Cc1ccco1)Oc1c(ccc3ccccc13)C2c1ccccc1 (centres undefined) 22.4 µM [inhibitor, single point]
CCOC(=O)c1ccc(NC(=O)c2nc[nH]c2C(=O)N[C@@H](Cc2ccccc2)C(=O)OC(C)(C)C)cc1 31.6 µM [inhibitor, single point]
O=C(COC(=O)c1cccc(S(=O)(=O)NCc2ccccc2)c1)c1ccc2c(c1)OCCO2 39.8 µM [inhibitor, single point]
CCOc1ccc(CCN2C(=O)C(=O)N([C@@H](CC(C)C)CN3CCC[C@@H]3CN3C(=O)C(=O)NC[C@@H]3Cc3ccccc3)C[C@@H]2CC(C)C)cc1 35.5 µM [inhibitor, single point]
OC(c1ccccc1)(c1nc(-c2cccc3cccnc23)cs1)C(F)(F)F (centres undefined) 39.8 µM [inhibitor, single point]
NNC(=O)C(=O)Nc1ccc(Cl)c(Cl)c1 39.8 µM [inhibitor, single point]
O=C(c1ccc2n[nH]nc2c1)N1CCN(c2ccc(C(F)(F)F)cn2)CC1 12.6 µM [inhibitor, partial curve]
CCOC(=O)c1[nH]c2c(c1-c1ccc(OC)cc1)C(=O)CC(c1ccc(OC)c(OC)c1)C2 (centres undefined) 28.2 µM [inhibitor, partial curve]
Cc1cc(C)c(S(=O)(=O)N2CCCCC2CCNC(=O)C(=O)NCc2ccco2)c(C)c1 (centres undefined) 25.1 µM [inhibitor, partial curve, poor fit]
CC12CCC=CC1=C(C=O)C1C2CCC2(C)C(O)CCC12 (centres undefined) 39.8 µM [inhibitor, single point]
O=c1c2cc(F)ccc2sn1-c1ccccc1 22.4 µM [inhibitor, single point]
CC[C@H](C)[C@H](NC(=O)c1ccc(Cl)cc1)C(=O)OCC(=O)c1ccc2c(c1)NC(=O)CO2 39.8 µM [inhibitor, single point]
COc1ccc(S(=O)(=O)N2CCN(CCOc3ccccc3Cl)CC2)cc1OC 14.1 µM [inhibitor, partial curve, poor fit]

Potency, active:
OC(CNCCc1ccccc1)COc1ccc(OCC(O)CNCCc2ccccc2)cc1 (centres undefined) 28.2 µM
Cc1ccc2c(c1)COc1c3ccc(C(=O)O)cc3nn1-2 7.94 µM
CCOc1ccc(OCc2ccc(C(=O)N/N=C(\C)c3ccccn3)cc2)cc1 2.82 µM
CC(C)CC(=O)Nc1n[nH]c2c1CN(C(=O)C1CCN(C)CC1)C2(C)C 1.09 µM
Cc1ccc2occ(CC(=O)Nc3ccc(Cl)c(C(F)(F)F)c3)c2c1 25.1 µM
COc1ccc(C)c2sc(N(CCCN(C)C)C(=O)c3ccc(S(=O)(=O)N4CCc5ccccc5C4)cc3)nc12 28.2 µM

Potency, inactive:
COc1ccc(C(=O)/C=C/c2ccccc2OC)c(OC(=O)c2ccc([N+](=O)[O-])cc2)c1
O=C(CSC1=Nc2ccccc2N=C(c2ccc(F)cc2)C1)Nc1ccc(Cl)cc1
COc1ccc(C2C(C#N)=C(C)NC3=C2C(=O)c2ccccc23)cc1 (centres undefined)
O=C(CN1C(=O)NC2(CCc3ccccc32)C1=O)c1ccc(Br)cc1 (centres undefined)
COc1ccc2cc(CNc3ccc(C)cc3)c(=O)n(CC(=O)Nc3cccc(C(F)(F)F)c3)c2c1
COc1cc[n+]([O-])cc1[N+](=O)[O-]
COc1ccc(Cn2nnnc2CN2CCc3ccccc32)cc1
CNC(=O)NC(=S)NC(=O)c1ccc(OC)cc1
CCn1c(C(=O)N2CCC(C(=O)N3CCN(c4ccccn4)CC3)CC2)cc2sccc21
CCC(=O)N/N=C/c1ccc(-c2ccc([N+](=O)[O-])cc2)o1
CCCCOc1ncnc2c1[nH]c1ccc(OC)cc12
COc1ccc2[nH]c(C(=O)NCc3ccc4c(c3)OCO4)cc2c1
CCOc1ccc(NC(=O)c2ccc(NC(=S)NC3CCCCC3)cc2)cc1
CC1CCN(S(=O)(=O)c2cc(C(=O)NCc3ccccc3)n(C)c2)CC1
COc1ccc(CCNC(=O)COC(=O)Cc2c[nH]c3ccccc23)cc1OC
Cc1nc(OCC(C)C)c2sc3nc4c(cc3c2n1)COC(C)(C)C4
Cc1cccc(N(C(=O)CCC(=O)Nc2nccs2)C(C(=O)NC(C)(C)C)c2ccc(O)cc2)c1 (centres undefined)
